Reference: publication PMC4336329 (PLoS ONE, 2015)
About 2,200 (0.71%) of roughly 310,000 compounds showed an effect of 50% or more. Effects have a minus sign here. Some of the results follow.

These compounds were tested against human ether-à-go-go-related gene (hERG) potassium channel (human, UniProt Q12809) (assay: primary screen, population patch clamp on CHO cells stably expressing hERG).
Sequence of human ether-à-go-go-related gene (hERG) potassium channel (Q12809 whole entry, looked up): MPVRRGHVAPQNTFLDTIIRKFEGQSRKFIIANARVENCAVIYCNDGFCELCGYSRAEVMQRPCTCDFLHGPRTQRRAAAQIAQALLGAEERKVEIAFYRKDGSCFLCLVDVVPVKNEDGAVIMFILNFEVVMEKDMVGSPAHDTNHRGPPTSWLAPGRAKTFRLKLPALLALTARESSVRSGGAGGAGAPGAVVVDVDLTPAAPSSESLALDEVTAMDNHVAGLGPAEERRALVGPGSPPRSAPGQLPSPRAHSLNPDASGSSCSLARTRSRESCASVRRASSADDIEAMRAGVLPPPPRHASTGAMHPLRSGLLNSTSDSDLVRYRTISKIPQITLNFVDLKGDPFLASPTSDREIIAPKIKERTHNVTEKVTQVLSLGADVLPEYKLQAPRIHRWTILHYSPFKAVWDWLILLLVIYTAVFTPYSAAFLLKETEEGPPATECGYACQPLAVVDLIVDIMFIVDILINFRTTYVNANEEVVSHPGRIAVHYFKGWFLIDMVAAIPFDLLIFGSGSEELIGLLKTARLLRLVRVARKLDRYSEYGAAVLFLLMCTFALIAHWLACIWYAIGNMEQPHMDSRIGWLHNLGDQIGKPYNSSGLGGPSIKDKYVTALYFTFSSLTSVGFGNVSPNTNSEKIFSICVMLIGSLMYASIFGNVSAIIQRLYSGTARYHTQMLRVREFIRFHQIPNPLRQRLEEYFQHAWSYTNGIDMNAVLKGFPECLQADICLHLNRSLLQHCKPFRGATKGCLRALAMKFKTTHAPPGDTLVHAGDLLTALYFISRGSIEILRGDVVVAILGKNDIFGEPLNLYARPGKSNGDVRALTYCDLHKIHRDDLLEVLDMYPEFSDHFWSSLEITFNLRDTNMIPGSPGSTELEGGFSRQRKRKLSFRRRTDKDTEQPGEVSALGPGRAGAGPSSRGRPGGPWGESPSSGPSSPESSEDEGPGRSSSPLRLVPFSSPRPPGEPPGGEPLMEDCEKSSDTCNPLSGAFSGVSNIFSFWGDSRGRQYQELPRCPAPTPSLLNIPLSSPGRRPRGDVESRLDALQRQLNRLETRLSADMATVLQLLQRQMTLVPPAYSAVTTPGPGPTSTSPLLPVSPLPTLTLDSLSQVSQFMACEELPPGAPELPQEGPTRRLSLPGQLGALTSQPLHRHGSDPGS

| Structure (SMILES) | hERG current change (%, negative = inhibition) at 1uM |
| --- | --- |
| CN(CC(=O)Nc1cccc(F)c1)C(=O)C1CC(=O)N(Cc2ccccc2)C1 (stereo not shown) | 6.45% |
| Brc1ccccc1/C=N/Nc1nc2ccccc2o1 | 13.5% |
| COc1ccccc1OCCC(=O)OCC(=O)Nc1cc(S(=O)(=O)N2CCOCC2)ccc1Cl | 6.47% |
| O=C(C1CCN(S(=O)(=O)c2ccccc2)CC1)N1CCCCC1 | 4.28% |
| O=C(/C=N/O)NCC1CCNCC1 | 19.1% |
| Cc1cc(=O)oc(C)c1C(=O)Nc1cccc2nonc12 | 0.776% |
| O=C(c1cccs1)N1CCN(c2ncc(Br)cn2)CC1 | 13.4% |
| CCCN1Cc2cccc(C(=O)NCc3ccc4c(c3)OCO4)c2C1=O | 2.81% |
| COc1ccc(-c2cnc3c(-c4ccc(F)cc4)cnn3c2N)cc1 | 15.9% |
| O=C1C2C(C(=O)N1c1ccc3c(c1)OCO3)C1C=CC2C12CC2 (stereo not shown) | 2.83% |
| Cl.O=C(c1ccco1)N(CCCN1CCOCC1)c1nc(-c2ccc(F)cc2)cs1 | 13.3% |
| Fc1ccc(N2CCN(c3ncnc4c3nnn4Cc3ccccc3Cl)CC2)cc1 | 14.2% |
| Cc1ccccc1OC1CCN(C(=O)c2cc(COc3ccccc3)on2)CC1 | 13% |
| CCOC(=O)CCNCc1ccc(F)cc1.Cl | 9.06% |
| N#CCCCSc1nnc(CSc2nc3ccccc3s2)n1-c1ccccc1 | -8.46% |
| Cn1c(/C=C/c2ccc(Br)cc2)nc2ccccc2c1=O | 17.1% |
| CCOC(=O)c1c(S(=O)(=O)NCCc2ccccc2)c(C)n(C)c1C | -11.1% |
| CCOc1ccc(S(=O)(=O)N(C)c2ccc(OCC(=O)Nc3nccs3)cc2)cc1 | 7.75% |
| COc1ccc(-c2cnn3c(N)c(S(=O)(=O)c4ccccc4)cnc23)cc1 | 4.24% |
| Cc1ccc(C)c(NC(=O)CCN2CCN(CCO)CC2)c1.Cl | 7.85% |
| CCN(CC)c1ccc(CN(C)CCc2ccc(OC)c(OC)c2)cc1 | -40% |
| O=C(CCCSc1nc2sc3c(c2c(=O)[nH]1)CCC3)NCCO | 15.2% |
| O=C(Nc1ccc(O)cc1)c1ccc(NC(=O)C2CCCO2)cc1 (stereo not shown) | 5.74% |
| CCOCCOC(=O)c1ccc(NC(=O)C2COc3ccccc3O2)cc1 (stereo not shown) | 14% |
| CCc1ccc2oc(-c3ccc(OC)cc3)cc(=[NH+]c3cccc(C(=O)O)c3)c2c1.F[B-](F)(F)F | 4.56% |
